The text below walks through data of the supplement of paper PMC12632987.

In all, about 1,800 sequences were measured (“median log2 fold change of GCK-ALFA target abundance (FLAG IP / Myc IP barcode read proportion)”: median about 0.14, lowest 2% from about -0.84 on). The list shows a part of the results.

Sequences and labels used below:
T1: TRAF2, Q12933
T1 chain: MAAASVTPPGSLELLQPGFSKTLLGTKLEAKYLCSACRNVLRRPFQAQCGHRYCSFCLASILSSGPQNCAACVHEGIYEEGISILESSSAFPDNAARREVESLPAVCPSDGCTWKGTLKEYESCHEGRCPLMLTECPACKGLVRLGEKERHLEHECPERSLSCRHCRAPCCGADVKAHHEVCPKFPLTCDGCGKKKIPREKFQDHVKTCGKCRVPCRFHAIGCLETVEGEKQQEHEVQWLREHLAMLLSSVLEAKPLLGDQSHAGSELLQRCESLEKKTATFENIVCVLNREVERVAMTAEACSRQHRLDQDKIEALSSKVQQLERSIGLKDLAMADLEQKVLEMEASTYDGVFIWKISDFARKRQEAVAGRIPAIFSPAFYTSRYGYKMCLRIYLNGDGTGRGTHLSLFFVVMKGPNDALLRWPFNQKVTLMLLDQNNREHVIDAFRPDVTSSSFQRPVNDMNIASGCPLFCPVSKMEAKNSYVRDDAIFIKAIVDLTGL

B1: traf2_out_15_48_1338 (protein)
chain: STEALQAAARQINDAADKVREEVIKTLDELKPKVSPEVAKEIEELKAAAKAGAPLRTLLAKLEELKKKVSPEVAKKIEESAKKIRDTIKEGSKLMNEVLK
B2: traf2_out_11_131_659 (protein)
chain: MDAVATARSAAERVDAALAHAATLSPEERRRVARHALDTLEAVAEYLTAHAAEMSPAAVAEAVAILRAARARVLALDPSVAPEAAEVDAALAALLAAAAA
B3: traf2_out_20_3_2082 (protein)
chain: EELLKELEKELERAIKLLKEAAKKSDPETAARLEKLIEEIKASRELPLTDRLVVLSRVRREVLLLAQEAKAKGDEELAKILEEAADALNRAMNLLMKLIE
B4: traf2_out_11_169_825 (protein)
chain: KEAEFNRKVNDKALELNDEAIKELKEFALELAKEEGLDVEEVKAIFEKLKGASLSAVAAALIEYFKSKGKEEAAKKIEEKYEELKEKINKEMSKFLKELE
B5: traf2_out_15_48_1351 (protein)
chain: STEALLATAREVNDLIDATLDEVARELEALRPRVPPELRPLLDRAIELASRTGTITEVIALLRELRKRASPELAKELDELIERLEATRKEASALMNETLK
B6: traf2_out_16_171_1432 (protein)
chain: SAEEKEKKLKEEIKARRDSLIERMETMVEVAPLISKETGLSIEQIAKGVESTFTDKIEALEKELEEKAKDASPEVKKYMKEALKEIKEAREKALKEIKAL
B7: traf2_out_17_162_1544 (protein)
chain: SSLEEELAELEAELERLEKERERLESLLPELSKMSKEELTDLLVEASEARRRARLLAERIRELREEIGEERARELEERARRVAEELQRIANAIYKEILKK
B8: traf2_out_20_38_2022 (protein)
chain: SEEEEEKKKLEELVKVANEAYDEYTARFAEWKAAGKTVEEIAEEVKERIRELLTAAGLEEEAEILIEEVDLALKSPEAERLLVRTLARAVALVHQKELQK

In the experiment the target is T1, TRAF2, Q12933. The experiment can be described thus: median log2 fold change of GCK-ALFA target abundance (FLAG IP / Myc IP barcode read proportion) (log2 ratio); each designed protein is fused to an ALFA-tag nanobody in HEK293 cells to bring the named protein to FLAG-tagged glucokinase (GCK); Myc marks an untargeted standard; higher = target protein stabilised (more abundant). As to conditions: target protein: 3xFLAG-MCP-GCK-ALFA reporter; HEK293 landing pad (RPLP). Put shortly: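 An ALFA-nanobody-fused binder library was recombined into HEK293 landing-pad cells and induced with 2 μg mL^−1 doxycycline. Cells were transfected with a plasmid expressing a FLAG-tagged target and a Myc-tagged standard. After 48 h, lysates underwent anti-FLAG and anti-Myc immunoprecipitation, and circular RNA barcodes were reverse transcribed, amplified and sequenced. Target abundance is the per-binder median log2 ratio of FLAG to Myc barcode read proportions. Barcodes needed ≥10^−7 proportion in both replicates, binders ≥3 barcodes per replicate, and a 10^−6 pseudocount was added; the two replicates were pooled.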
Regarding B1, the “median log2 fold change” value worked out at 0.238.

As to B2, the “median log2 fold change” value is -0.0419.

As to B3, the “median log2 fold change” value is -0.0159.

For the molecule B4, the “median log2 fold change” value came to 0.317.

As to B5, the “median log2 fold change” value was determined as 0.204.

Turning to B6, the “median log2 fold change” value was -0.397.

Regarding B7, the “median log2 fold change” value turned out to be 0.31.

With B8, the “median log2 fold change” value is -0.885.
